# This is a selection; strong and weak results do not stand in their true shares. The list includes weakly bound sequences.
# Tests used:
# Assay in all cases: protein-binding microarray (PBM)
# Settings in all cases: PBM: ~300 nM protein, 6 mM HEPES pH 7.8, 80 mM KCl, 0.5 mM EDTA, 0.5 mM EGTA, 6% glycerol, 35 ng/ul poly-dIdC, 1% milk, 1 h, room temperature; Ap Aiptasia and Nv Nematostella (sea anemones) / Co Capsaspora / Aq Amphimedon (sponge) / Dm Drosophila / Hu human; RHD is the Rel homology domain; high values mean tight binding; most listed sequences are background and not binding sites; double strand, one strand shown
# [1] = target: T1, GST-Ap-NF-kB RHD (UniProt A0A913YAJ5)
# T1 sequence: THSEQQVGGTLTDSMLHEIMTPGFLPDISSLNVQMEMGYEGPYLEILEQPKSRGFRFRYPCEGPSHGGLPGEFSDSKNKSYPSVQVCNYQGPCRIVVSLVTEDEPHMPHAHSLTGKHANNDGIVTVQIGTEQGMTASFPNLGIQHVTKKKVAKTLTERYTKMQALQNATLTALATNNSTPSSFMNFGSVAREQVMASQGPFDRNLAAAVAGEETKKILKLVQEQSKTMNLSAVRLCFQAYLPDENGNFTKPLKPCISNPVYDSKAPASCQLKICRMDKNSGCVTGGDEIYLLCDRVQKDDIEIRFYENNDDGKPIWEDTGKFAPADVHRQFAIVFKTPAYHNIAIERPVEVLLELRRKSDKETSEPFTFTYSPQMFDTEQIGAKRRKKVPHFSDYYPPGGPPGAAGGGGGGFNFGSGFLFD
# [2] = target: T2, GST-Nv-NF-kB (Cys allele) (UniProt E5G601)
# T2 sequence: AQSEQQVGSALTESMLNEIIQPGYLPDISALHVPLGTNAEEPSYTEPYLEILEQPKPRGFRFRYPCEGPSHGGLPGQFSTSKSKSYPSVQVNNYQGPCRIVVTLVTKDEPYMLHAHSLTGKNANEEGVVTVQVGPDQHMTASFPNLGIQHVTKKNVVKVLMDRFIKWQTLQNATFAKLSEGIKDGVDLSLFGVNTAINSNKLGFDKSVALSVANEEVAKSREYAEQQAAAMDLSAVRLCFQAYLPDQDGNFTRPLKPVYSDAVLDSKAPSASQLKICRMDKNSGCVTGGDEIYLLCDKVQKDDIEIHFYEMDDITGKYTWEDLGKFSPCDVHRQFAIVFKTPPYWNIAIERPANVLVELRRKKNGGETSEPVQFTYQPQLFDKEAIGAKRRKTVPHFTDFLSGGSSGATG
# [3] = target: T3, GST-Co-NF-kB (UniProt F1ARL5)
# T3 sequence: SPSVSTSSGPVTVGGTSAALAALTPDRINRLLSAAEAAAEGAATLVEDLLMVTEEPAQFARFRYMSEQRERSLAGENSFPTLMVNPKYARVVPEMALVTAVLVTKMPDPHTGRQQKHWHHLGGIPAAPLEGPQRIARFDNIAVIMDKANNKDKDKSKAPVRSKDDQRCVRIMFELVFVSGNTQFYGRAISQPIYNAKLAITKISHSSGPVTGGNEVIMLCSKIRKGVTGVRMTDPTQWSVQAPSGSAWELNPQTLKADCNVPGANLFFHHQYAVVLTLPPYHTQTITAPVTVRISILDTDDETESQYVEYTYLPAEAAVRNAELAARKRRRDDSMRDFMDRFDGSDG
# [4] = target: T4, GST-Aq-NF-kB (UniProt A9Y5G7)
# T4 sequence: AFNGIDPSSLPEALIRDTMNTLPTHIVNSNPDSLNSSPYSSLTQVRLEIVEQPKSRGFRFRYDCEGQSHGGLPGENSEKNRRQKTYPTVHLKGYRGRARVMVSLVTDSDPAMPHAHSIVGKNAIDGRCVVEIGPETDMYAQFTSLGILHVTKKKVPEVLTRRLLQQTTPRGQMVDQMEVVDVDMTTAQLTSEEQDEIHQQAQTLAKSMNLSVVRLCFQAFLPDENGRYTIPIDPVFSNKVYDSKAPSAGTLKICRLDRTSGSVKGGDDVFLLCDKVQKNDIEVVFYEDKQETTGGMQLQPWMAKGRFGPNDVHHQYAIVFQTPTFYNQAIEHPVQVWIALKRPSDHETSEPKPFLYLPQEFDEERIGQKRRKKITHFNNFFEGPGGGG
# [5] = target: T5, GST-Dm-Relish (UniProt Q94527)
# T5 sequence: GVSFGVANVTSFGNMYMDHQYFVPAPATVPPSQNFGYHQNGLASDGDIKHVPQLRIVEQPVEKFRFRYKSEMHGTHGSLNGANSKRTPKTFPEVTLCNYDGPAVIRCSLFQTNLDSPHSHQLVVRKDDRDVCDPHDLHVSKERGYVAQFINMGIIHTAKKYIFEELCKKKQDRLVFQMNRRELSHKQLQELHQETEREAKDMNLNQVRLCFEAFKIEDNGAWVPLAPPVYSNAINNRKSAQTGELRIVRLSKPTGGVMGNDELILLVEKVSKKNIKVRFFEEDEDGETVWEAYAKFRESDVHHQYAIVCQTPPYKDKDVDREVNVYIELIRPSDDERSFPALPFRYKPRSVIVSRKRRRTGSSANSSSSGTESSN
Sequence,binding signal [1],binding signal [2],binding signal [3],binding signal [4],binding signal [5]
CCGATTAACATCAGAAATTCCCCTGATGTTAATCGGGTCTTGATTCGCTTGACGCTGCTG,9.89 z-score,12.3 z-score,8.74 z-score,8.89 z-score,
CCGATTAACATCAGGAATATACATGATGTTAATCGGGTCTTGATTCGCTTGACGCTGCTG,0.0733 z-score,-0.17 z-score,-0.0292 z-score,-0.254 z-score,
CCGATTAACATCAGGATTTACCATGATGTTAATCGGGTCTTGATTCGCTTGACGCTGCTG,0.481 z-score,0.462 z-score,0.0234 z-score,1.48 z-score,
CCGATTAACATCAGGAAAATACATGATGTTAATCGGGTCTTGATTCGCTTGACGCTGCTG,0.531 z-score,-0.246 z-score,0.634 z-score,0.803 z-score,
CCGATTAACATCAGAGTAATTCCTGATGTTAATCGGGTCTTGATTCGCTTGACGCTGCTG,-0.0018 z-score,0.169 z-score,0.569 z-score,0.455 z-score,
CCGATTAACATCAAAAAAAATCCTGATGTTAATCGGGTCTTGATTCGCTTGACGCTGCTG,0.518 z-score,0.802 z-score,0.554 z-score,2.68 z-score,
CCGATTAACATCACGAAAATTCCTGATGTTAATCGGGTCTTGATTCGCTTGACGCTGCTG,0.0904 z-score,-0.24 z-score,-0.144 z-score,1.41 z-score,
CCGATTAACATCAGTAGTTTCCATGATGTTAATCGGGTCTTGATTCGCTTGACGCTGCTG,-0.167 z-score,0.0875 z-score,0.56 z-score,0.679 z-score,
CCGATTAACATCACGGAATTGCCTGATGTTAATCGGGTCTTGATTCGCTTGACGCTGCTG,-0.449 z-score,-0.777 z-score,-0.401 z-score,1.14 z-score,
CCGATTAACATCAGCATCCACGGTGATGTTAATCGGGTCTTGATTCGCTTGACGCTGCTG,0.158 z-score,0.041 z-score,0.81 z-score,0.361 z-score,
CCGATTAACATCAAGTACATTCCTGATGTTAATCGGGTCTTGATTCGCTTGACGCTGCTG,-0.368 z-score,-0.968 z-score,-0.0276 z-score,0.319 z-score,
CCGATTAACATCACAAATTTTCCTGATGTTAATCGGGTCTTGATTCGCTTGACGCTGCTG,-0.106 z-score,0.174 z-score,1.2 z-score,0.791 z-score,
CCGATTAACATCAAAATTTTCCTTGATGTTAATCGGGTCTTGATTCGCTTGACGCTGCTG,0.0111 z-score,0.199 z-score,-0.228 z-score,1.12 z-score,
CCGATTAACATCACGTAAAATCCTGATGTTAATCGGGTCTTGATTCGCTTGACGCTGCTG,-0.29 z-score,-0.192 z-score,0.36 z-score,0.767 z-score,
CCGATTAACATCAAAAAAAGTACTGATGTTAATCGGGTCTTGATTCGCTTGACGCTGCTG,0.529 z-score,0.966 z-score,0.662 z-score,1.54 z-score,
CCGATTAACATCAGTGAATTCCATGATGTTAATCGGGTCTTGATTCGCTTGACGCTGCTG,-0.23 z-score,-0.133 z-score,-0.183 z-score,0.33 z-score,
CCGATTAACATCAAAATTCCATATGATGTTAATCGGGTCTTGATTCGCTTGACGCTGCTG,-0.0851 z-score,-0.259 z-score,-0.664 z-score,0.415 z-score,
CCGATTAACATCACAGAATTTCCTGATGTTAATCGGGTCTTGATTCGCTTGACGCTGCTG,0.392 z-score,-0.0448 z-score,0.217 z-score,1.36 z-score,
CCGATTAACATCAAGAATTCCCCTGATGTTAATCGGGTCTTGATTCGCTTGACGCTGCTG,9.76 z-score,11.7 z-score,7.33 z-score,8.32 z-score,
CCGATTAACATCACAGAAAATCCTGATGTTAATCGGGTCTTGATTCGCTTGACGCTGCTG,0.187 z-score,-0.511 z-score,-0.185 z-score,0.473 z-score,
CCGATTAACATCATGCAAGAACTTGATGTTAATCGGGTCTTGATTCGCTTGACGCTGCTG,-0.825 z-score,0.00555 z-score,0.0534 z-score,-0.405 z-score,-0.302 z-score
CCGATTAACATCATTTACATTCGTGATGTTAATCGGGTCTTGATTCGCTTGACGCTGCTG,-0.179 z-score,-0.175 z-score,0.00142 z-score,-0.175 z-score,
CCGATTAACATCAGGAATTGTCCTGATGTTAATCGGGTCTTGATTCGCTTGACGCTGCTG,-0.624 z-score,0.532 z-score,-0.145 z-score,0.814 z-score,-0.0845 z-score
CCGATTAACATCAGGAAAGTCCATGATGTTAATCGGGTCTTGATTCGCTTGACGCTGCTG,-0.292 z-score,0.596 z-score,-0.0853 z-score,3.71 z-score,
CCGATTAACATCAGGAAAACACATGATGTTAATCGGGTCTTGATTCGCTTGACGCTGCTG,-0.437 z-score,0.358 z-score,0.425 z-score,0.549 z-score,
CCGATTAACATCATGAACATTTATGATGTTAATCGGGTCTTGATTCGCTTGACGCTGCTG,-0.701 z-score,0.119 z-score,-0.479 z-score,-0.211 z-score,-0.164 z-score
CCGATTAACATCACCTTAATGCCTGATGTTAATCGGGTCTTGATTCGCTTGACGCTGCTG,0.53 z-score,-0.445 z-score,0.264 z-score,0.581 z-score,0.265 z-score
CCGATTAACATCAGGAAACTACATGATGTTAATCGGGTCTTGATTCGCTTGACGCTGCTG,0.0409 z-score,-0.844 z-score,0.384 z-score,0.544 z-score,
CCGATTAACATCACGTACTTTCCTGATGTTAATCGGGTCTTGATTCGCTTGACGCTGCTG,0.358 z-score,0.0803 z-score,0.458 z-score,2.39 z-score,
